In PMC11911400, “Mechanism of ASF1 engagement by CDAN1” (Nature Communications, 2025) one finds binding data, which are given here for two substances.

Chains of the proteins cited; added tags and fusions are not shown.
UniProt Q9Y294: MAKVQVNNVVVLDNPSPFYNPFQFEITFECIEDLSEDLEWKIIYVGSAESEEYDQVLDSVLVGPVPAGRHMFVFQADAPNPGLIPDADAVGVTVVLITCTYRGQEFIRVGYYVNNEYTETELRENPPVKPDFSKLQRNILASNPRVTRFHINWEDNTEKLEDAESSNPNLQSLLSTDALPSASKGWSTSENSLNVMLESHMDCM
UniProt Q9NVP2: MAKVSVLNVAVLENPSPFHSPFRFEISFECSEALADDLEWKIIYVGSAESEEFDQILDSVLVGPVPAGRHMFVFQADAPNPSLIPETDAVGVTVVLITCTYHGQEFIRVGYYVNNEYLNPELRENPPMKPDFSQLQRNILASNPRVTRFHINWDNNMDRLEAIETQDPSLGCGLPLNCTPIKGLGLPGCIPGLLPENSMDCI

Numbering of substitutions follows the chain as printed. Results are given in words; binding and its absence hold for the method and conditions named. Binding seen in cells or lysates may run through a third protein. Some results given as binding are weak or reduced against the parent protein; the word gives no strength.

Assay [1] addresses T1, Strep-CDAN1 HMHA1* (R541A/R544A/R548A) (human) (UniProt Q8IWY9).
T1 sequence: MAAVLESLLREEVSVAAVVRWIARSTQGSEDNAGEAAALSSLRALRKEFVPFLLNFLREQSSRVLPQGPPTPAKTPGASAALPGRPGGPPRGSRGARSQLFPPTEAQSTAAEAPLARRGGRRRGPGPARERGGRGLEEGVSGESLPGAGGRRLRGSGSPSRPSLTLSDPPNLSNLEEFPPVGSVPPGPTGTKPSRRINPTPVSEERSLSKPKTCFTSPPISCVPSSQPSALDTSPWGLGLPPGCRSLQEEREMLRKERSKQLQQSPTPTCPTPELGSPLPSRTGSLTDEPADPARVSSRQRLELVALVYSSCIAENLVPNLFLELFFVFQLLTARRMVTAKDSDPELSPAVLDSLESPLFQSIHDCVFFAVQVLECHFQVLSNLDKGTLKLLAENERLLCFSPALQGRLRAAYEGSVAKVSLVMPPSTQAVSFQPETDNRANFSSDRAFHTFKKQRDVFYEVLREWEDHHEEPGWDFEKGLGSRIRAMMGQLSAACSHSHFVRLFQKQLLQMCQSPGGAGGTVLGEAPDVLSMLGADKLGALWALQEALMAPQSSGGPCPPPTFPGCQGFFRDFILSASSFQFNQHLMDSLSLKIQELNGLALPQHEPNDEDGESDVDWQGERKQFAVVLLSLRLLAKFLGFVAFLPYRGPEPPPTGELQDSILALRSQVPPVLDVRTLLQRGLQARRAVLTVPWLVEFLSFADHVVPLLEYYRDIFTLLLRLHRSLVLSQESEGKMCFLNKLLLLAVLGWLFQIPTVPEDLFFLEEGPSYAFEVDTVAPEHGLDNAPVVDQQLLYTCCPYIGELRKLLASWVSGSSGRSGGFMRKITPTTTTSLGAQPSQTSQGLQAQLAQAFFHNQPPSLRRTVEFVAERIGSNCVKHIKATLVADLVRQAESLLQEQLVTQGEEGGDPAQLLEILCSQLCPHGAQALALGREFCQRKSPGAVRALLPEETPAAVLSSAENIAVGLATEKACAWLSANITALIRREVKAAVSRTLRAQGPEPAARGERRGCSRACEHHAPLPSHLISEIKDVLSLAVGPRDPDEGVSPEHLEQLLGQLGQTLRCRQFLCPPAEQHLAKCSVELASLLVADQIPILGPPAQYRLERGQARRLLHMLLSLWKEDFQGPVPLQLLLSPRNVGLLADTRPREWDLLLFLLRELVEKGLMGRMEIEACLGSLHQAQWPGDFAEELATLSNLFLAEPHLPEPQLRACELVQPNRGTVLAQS
In words: pull-down; Strep-Tactin pulldown of transiently transfected ST-CDAN1 variants from Flp-In 293 T-REx lysates; endogenous ASF1A, ASF1B and CDIN1 detected by immunoblotting; IP buffer with 1% Triton X-100, 1 hr at 4 °C. (In western blotting, separated proteins are transferred to a membrane and probed.)

In assay [2] the target is T2, Strep-CDAN1 HMHA1* BDA2* (human) (UniProt Q8IWY9).
T2 sequence: T1 sequence with S194A, R195A, R196A
The assay is described as above.

Consider “endogenous ASF1A (from UniProt Q9Y294 1-204)”, for which the binding entry was “binds” in assay [1] and “no binding” in assay [2].

“endogenous ASF1B (from UniProt Q9NVP2 1-202)”: the binding entry in assay [1] and in assay [2] was “no binding” in each case.
